B1: GPR68, Q15743 (parent)
chain: MGNITADNSSMSCTIDHTIHQTLAPVVYVTVLVVGFPANCLSLYFGYLQIKARNELGVYLCNLTVADLFYICSLPFWLQYVLQHDNWSHGDLSCQVCGILLYENIYISVGFLCCISVDRYLAVAHPFRFHQFRTLKAAVGVSVVIWAKELLTSIYFLMHEEVIEDENQHRVCFEHYPIQAWQRAINYYRFLVGFLFPICLLLASYQGILRAVRRSHGTQKSRKDQIQRLVLSTVVIFLACFLPYHVLLLVRSVWEASCDFAKGVFNAYHFSLLLTSFNCVADPVLYCFVSETTHRDLARLRGACLAFLTCSRTGRAREAYPLGAPEASGKSGAQGEEPELLTKLHPAFQTPNSPGSGGFPTGRLA

The variants in data set [1] derive from B1. The experiment in a line: cAMP reporter score (Enrich2 score, wild type = 0); higher = more signal; HEK293T, FACS bins.
The variants in data set [2] derive from B1. Briefly: surface expression score (Enrich2 score, wild type = 0); higher = more signal; HEK293T, FACS bins.

Scores whose standard error is large were omitted. Not listed are two conditions whose scores span a narrow range. Read del as a deletion of the residues named and ins as an insertion between two positions. For some of these results: The concentration of ogerin is not given here.

On to G140Q, for which the cAMP reporter score in data set [1] (pH 5.5) was -0.581; in data set [1] (pH 6), -1.47; in data set [1] (pH 6, modulator: ogerin), 0.138; in data set [1] (pH 6.5, modulator: ogerin), -0.501. Moreover, the surface expression score in data set [2] is -1.23.
On the same counts, the results for G140A are 1.03, 0.494, 1.35, 1.43 and 1.07.
For G140S the same measures were 0.526, 1.36, 0.454, 2.49 and 1.29.
On the same counts, the results for G140V are -0.48, -0.52, -0.757, -0.131 and -0.175.
Regarding G140N, the cAMP reporter score was 0.202 in data set [1] (pH 5.5); -0.326 in data set [1] (pH 6, modulator: ogerin); -0.022 in data set [1] (pH 6.5, modulator: ogerin). Further, the surface expression score in data set [2] was -2.19.
Take G140E: the cAMP reporter score in data set [1] (pH 5.5) is -0.717; in data set [1] (pH 6), -1.08; in data set [1] (pH 6, modulator: ogerin) it was -1.61; in data set [1] (pH 6.5, modulator: ogerin) it was -1.01. Moreover, in data set [2], the surface expression score is -1.81.
Regarding G140W, the cAMP reporter score in data set [1] (pH 5.5) turned out to be 0.534; in data set [1] (pH 6), 0.643; in data set [1] (pH 6, modulator: ogerin), 1.02; in data set [1] (pH 6.5, modulator: ogerin), 0.837. Moreover, the surface expression score in data set [2] turned out to be 0.941.
As to G140T, the cAMP reporter score in data set [1] (pH 5.5) was found to be 0.597; in data set [1] (pH 6) it was 0.562; in data set [1] (pH 6, modulator: ogerin) it was 0.69; in data set [1] (pH 6.5, modulator: ogerin), 0.137. Further, the surface expression score in data set [2] was 0.757.
On the same counts, the results for G140L are 0.569, 1.02, 0.135, 0.283 and 0.639.
For G140C the same measures were 0.651, -0.2, 1.27, 1.13 and 0.558.
For G140R the same measures were -1.43, -1.09, -1.43, -1.37 and -2.61.
As to G140P, the cAMP reporter score in data set [1] (pH 5.5) was -1.1; in data set [1] (pH 6), -1.62; in data set [1] (pH 6, modulator: ogerin), -1.2; in data set [1] (pH 6.5, modulator: ogerin), -1.94. Moreover, the surface expression score in data set [2] is -1.87.
For G140I the same measures were 0.71, 0.265, 0.142, 1.59 and 1.24.
Regarding G140M, the cAMP reporter score in data set [1] (pH 5.5) was -0.12; in data set [1] (pH 6), -0.158; in data set [1] (pH 6, modulator: ogerin), 0.078; in data set [1] (pH 6.5, modulator: ogerin), 1.1. The surface expression score in data set [2] was 0.061.
G140H: the cAMP reporter score was -0.935 in data set [1] (pH 5.5); -0.938 in data set [1] (pH 6); -0.016 in data set [1] (pH 6, modulator: ogerin). Further, the surface expression score in data set [2] is -0.554.
With K136_A137insGSG, the cAMP reporter score in data set [1] (pH 5.5) was -2.05; in data set [1] (pH 6), 0.824; in data set [1] (pH 6, modulator: ogerin), -2.4; in data set [1] (pH 6.5, modulator: ogerin) it was -0.652.
On to V139_G140insGS, for which the cAMP reporter score in data set [1] (pH 5.5) is -1.41; in data set [1] (pH 6), -1.2; in data set [1] (pH 6, modulator: ogerin), -1.53; in data set [1] (pH 6.5, modulator: ogerin), -1.34. Moreover, in data set [2], the surface expression score is -2.13.
Consider V143D, for which the cAMP reporter score is -0.395 in data set [1] (pH 5.5); -0.824 in data set [1] (pH 6); -0.433 in data set [1] (pH 6.5, modulator: ogerin).
Take V143W: the cAMP reporter score in data set [1] (pH 5.5) is -1.69; in data set [1] (pH 6), -1.51; in data set [1] (pH 6.5, modulator: ogerin) it was -0.807. In addition, the surface expression score in data set [2] is -2.72.
For V143T, the cAMP reporter score in data set [1] (pH 5.5) is 0.636; in data set [1] (pH 6) it was 0.23; in data set [1] (pH 6, modulator: ogerin) it was 0.284; in data set [1] (pH 6.5, modulator: ogerin), 0.928. Also, the surface expression score in data set [2] is -0.007.
V143S: the cAMP reporter score is 0.924 in data set [1] (pH 5.5); 0.263 in data set [1] (pH 6, modulator: ogerin); -0.597 in data set [1] (pH 6.5, modulator: ogerin). Also, the surface expression score in data set [2] is -0.651.
For the variant V143C, the cAMP reporter score in data set [1] (pH 5.5) turned out to be 1.09; in data set [1] (pH 6, modulator: ogerin), 0.848; in data set [1] (pH 6.5, modulator: ogerin), 2.93. In addition, the surface expression score in data set [2] turned out to be 2.09.
In the case of V143H, the cAMP reporter score in data set [1] (pH 5.5) is -1.14; in data set [1] (pH 6), -1.19; in data set [1] (pH 6, modulator: ogerin), -1.18; in data set [1] (pH 6.5, modulator: ogerin), -1.24. Besides, in data set [2], the surface expression score is -3.33.
For V143M the same measures were -0.405, -0.15, -0.495, -0.515 and -0.453.
On the same counts, the results for V143E are -1.11, -1.19, -1.56, -1.2 and -1.37.
On to V143K, for which the cAMP reporter score was -1.17 in data set [1] (pH 5.5); -0.379 in data set [1] (pH 6); -1.27 in data set [1] (pH 6, modulator: ogerin); -1.57 in data set [1] (pH 6.5, modulator: ogerin). Besides, the surface expression score in data set [2] was -3.13.
Take V143I: the cAMP reporter score in data set [1] (pH 5.5) turned out to be 1.12; in data set [1] (pH 6), 1.12; in data set [1] (pH 6, modulator: ogerin) it was 1.52; in data set [1] (pH 6.5, modulator: ogerin), 0.787. Besides, in data set [2], the surface expression score is 1.13.
Take V143R: the cAMP reporter score was -0.493 in data set [1] (pH 5.5); -0.261 in data set [1] (pH 6); -1.49 in data set [1] (pH 6, modulator: ogerin); -0.921 in data set [1] (pH 6.5, modulator: ogerin). Also, the surface expression score in data set [2] is -3.19.
On the same counts, the results for V143P are -1.76, -0.566, -2.26, -1.67 and -2.82.
For the variant V143Q, the cAMP reporter score in data set [1] (pH 5.5) is -1.36; in data set [1] (pH 6), -1.01; in data set [1] (pH 6, modulator: ogerin) it was -1.76; in data set [1] (pH 6.5, modulator: ogerin) it was -1.34.
Turning to V143A, the cAMP reporter score was -0.393 in data set [1] (pH 5.5); 0.459 in data set [1] (pH 6); 0.558 in data set [1] (pH 6, modulator: ogerin).
As to V143Y, the cAMP reporter score in data set [1] (pH 5.5) was -0.728; in data set [1] (pH 6, modulator: ogerin), -1.49; in data set [1] (pH 6.5, modulator: ogerin) it was -1.55. Also, the surface expression score in data set [2] is -1.68.

These data come from the GPR68 mutational scans of Howard et al. (2025).
